Laboratory results reported in PubChem BioAssay AID588342 (National Center for Advancing Translational Sciences (NCATS), 2011).
Out of some 360,000 compounds screened, about 25,000 (6.9%) were called active. The shares of active, inactive and inconclusive entries below differ from those in the screen. The call rests on the fitted dose curve; in most records, active means well fitted inhibition curve with a large enough effect; inconclusive means small, poorly fitted or top-dose-only effect; inactive means flat fitted curve, though single readings scatter. Where the call is inconclusive, the potency comes from a doubtful curve fit.

Molecular target: Luciferin 4-monooxygenase (Photinus pyralis) (UniProt P08659)
Sequence of UniProt P08659 (P08659 whole entry, looked up): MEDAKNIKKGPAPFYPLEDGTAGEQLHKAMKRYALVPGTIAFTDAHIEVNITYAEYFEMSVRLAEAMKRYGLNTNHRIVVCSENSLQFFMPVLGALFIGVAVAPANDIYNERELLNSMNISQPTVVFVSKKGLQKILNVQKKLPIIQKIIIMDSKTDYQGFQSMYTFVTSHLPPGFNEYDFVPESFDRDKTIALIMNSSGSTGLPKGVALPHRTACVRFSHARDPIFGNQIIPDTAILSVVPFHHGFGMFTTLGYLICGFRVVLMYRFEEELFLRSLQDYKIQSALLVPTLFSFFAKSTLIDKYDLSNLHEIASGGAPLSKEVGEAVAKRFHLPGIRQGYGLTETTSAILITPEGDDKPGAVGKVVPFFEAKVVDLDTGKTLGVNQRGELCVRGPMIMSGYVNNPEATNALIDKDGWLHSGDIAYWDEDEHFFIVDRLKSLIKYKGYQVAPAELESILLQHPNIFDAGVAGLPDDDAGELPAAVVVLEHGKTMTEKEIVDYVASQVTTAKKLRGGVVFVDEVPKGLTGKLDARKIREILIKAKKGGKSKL
Experiment: qHTS profiling assay for firefly luciferase inhibitor/activator using purifed enzyme and Km concentrations of substrates (counterscreen for miR-21 project); further: nearly all actives have a fitted effect of over 55% in size;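 on activity change, negative = inhibition: plate controls were vehicle for no effect and reference inhibitor for full effect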
Settings: purified FLuc, luminescence inhibition; series mostly up to 57.5 µM; activity change, negative = inhibition: at the top concentration
Summary of the method: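 Biochemical qHTS of compounds, final roughly 60 µM downward over six points, against 10 nM purified firefly luciferase using Km concentrations of substrates (10 uM D-luciferin, 10 uM ATP) in Tris acetate pH 7.5 buffer; luminescence output.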
Potency means the concentration at half of the fitted maximal effect; tags describe the fitted curve by direction and shape.

| Structure (SMILES) | Potency | activity change, negative = inhibition |
| --- | --- | --- |
| Cc1ccc(-n2c(C)cc(C=C3C(=O)CC(C)(C)CC3=O)c2C)cc1 | inconclusive: 2.69 µM [inhibitor, partial curve] |  |
| CCOC(=O)c1c(C)[nH]c(C(=O)COC(=O)/C=C/c2ccc(OCC#N)c(OC)c2)c1C |  | inactive: 1.47% |
| CC(=O)c1ccc(NS(=O)(=O)c2ccc(Br)s2)cc1 | inconclusive: 21.3 µM [inhibitor, single point] |  |
| Cc1ccc(C(=O)Nc2cccc(C(F)(F)F)c2)cc1NC(=O)c1nccn1C | inconclusive: 4.26 µM [inhibitor, partial curve, poor fit] |  |
| CN1CCN(c2nnc(-c3ccc(F)cc3)c3ccccc23)CC1 | inconclusive: 33.8 µM [inhibitor, partial curve, poor fit] |  |
| O=C(Nc1ccc(F)cc1F)c1csc(-c2cccs2)n1 | active: 6.75 µM |  |
| Cc1ccc(CNC(=O)C2CCN(S(=O)(=O)c3ccc4nc5c(c(C(=O)O)c4c3)CC(C)CC5)CC2)cc1 (stereo not given) | inconclusive: 19 µM [inhibitor, partial curve, poor fit] |  |
| O=C(CN1CCCCC1)Nc1ccc(N2CCCCCC2)cc1 |  | inactive: -17.9% |
| Cn1c(NN)nc2sc3c(c2c1=O)CCC3 |  | inactive: 1.61% |
| CN1CCN(CCn2c(=S)[nH]c3ccccc3c2=O)CC1 |  | inactive: 1.47% |
| CC(C)CC(=O)NCC(c1ccc2c(c1)OCO2)N1CCN(c2ccc(F)cc2)CC1 (stereo not given) |  | inactive: -1.61% |
| CC(/C=N/NC(=O)NC1CCCCC1)=C\c1ccccc1 | inconclusive: 37.9 µM [inhibitor, single point] |  |
| CCCc1cc(=O)oc2cc(C)cc(OCC(=O)Nc3cccnc3)c12 |  | inactive: -2.34% |
| CC(C)(C)c1ccc(S(=O)(=O)c2cnc(SCC(=O)Nc3ccc4c(c3)OCCO4)[nH]c2=O)cc1 | active: 10.7 µM |  |
| COc1ccc(-c2noc(C3CCCN(C(=O)c4c(F)cccc4F)C3)n2)cc1OC (stereo not given) | inconclusive: 23.9 µM [inhibitor, partial curve, poor fit] |  |
| CC(CCn1cccn1)NC(=O)c1cc(COc2ccc(F)cc2Cl)on1 (stereo not given) | active: 16.9 µM |  |
| O=C(CNC(=O)c1ccc(Cl)cc1)OCCCOC(=O)CNC(=O)c1ccc(Cl)cc1 | inconclusive: 37.9 µM [inhibitor, partial curve, poor fit] |  |
| Cc1c(C(=O)Nc2ccccn2)oc2c(Cl)cccc12 | inconclusive: 7.57 µM [inhibitor, full curve] |  |
| O=C(CCCOc1ccccc1)NCCc1ccccc1 | inconclusive: 23.9 µM [inhibitor, single point] |  |
| CC(C)[C@H](NC(=O)OC(C)(C)C)C(=O)N/N=C/c1cccc2nccnc12 | inconclusive: 16.9 µM [inhibitor, partial curve] |  |
| CCn1nnnc1SCC(=O)Nc1ccc(N(C)C)cc1 | inconclusive: 37.9 µM [inhibitor, partial curve, poor fit] |  |
| CCOc1ccccc1NC(=O)Nc1ccc2c(c1)CCC2 | active: 6.75 µM |  |
| Cc1ccc(C(=O)c2nccn2C)cc1C | inconclusive: 23.9 µM [inhibitor, partial curve, poor fit] |  |

| Structure (SMILES) | Potency | activity change, negative = inhibition |
| --- | --- | --- |
| CC1CCC(NC(=O)CCC(=O)N2CC(C)Oc3ccccc32)CC1 (stereo not given) | inconclusive: 23.9 µM [inhibitor, partial curve, poor fit] |  |
| O=C(Cn1nnc(-c2ccccc2)n1)Nc1cccc(S(=O)(=O)N2CCCC2)c1 |  | inactive: -21% |
| CC(C)C(=O)Nc1cccc(C(=O)Nc2nccs2)c1 | inconclusive: 26.9 µM [inhibitor, partial curve, poor fit] |  |
| COc1cccc(C(=O)O/N=C(\N)Cc2ccc(Cl)cc2)c1 | inconclusive: 37.9 µM [inhibitor, single point] |  |
| CN(C)C(=O)c1c2c(nc3ccccc13)-c1ccccc1CC2 | inconclusive: 23.9 µM [inhibitor, single point] |  |
| COc1cccc(-c2cc(C(=O)N/N=C/c3ccc(OC)c(COC(C)=O)c3)c3ccccc3n2)c1 | inconclusive: 10.7 µM [inhibitor, partial curve] |  |
| O=[N+]([O-])c1ccccc1/C=C/c1ccc2ccccc2n1 | active: 2.13 µM |  |
| COc1ccc(C(=O)Nc2ccc(S(=O)(=O)Nc3onc(C)c3C)cc2)c(OC)c1 | inconclusive: 23.9 µM [inhibitor, partial curve] |  |
| CCOc1ccc(S(=O)(=O)NCc2ccc3c(c2)CCN3C(=O)c2ccc(C)cc2)cc1 |  | inactive: -1.9% |
| Cc1nnc2c3ccccc3nc(Nc3ccccc3C(=O)O)n12 | inconclusive: 12 µM [inhibitor, partial curve] |  |
| COc1ccc(S(=O)(=O)Nc2cc(-c3cn4ccc(C)cc4n3)ccc2C)cc1OC | active: 15.1 µM |  |
| Cc1ccc(NCc2cc3cc4c(cc3n(CC(=O)Nc3ccc(F)cc3F)c2=O)OCCO4)cc1 | inconclusive: 16.9 µM [inhibitor, partial curve, poor fit] |  |
| COc1ccc(CNC(=O)c2csc(Cc3ccc(OC)cc3)n2)cc1 | inconclusive: 33.8 µM [inhibitor, single point] |  |
| O=C(c1cccs1)c1cn(CC(=O)N2CCc3ccccc3C2)c2ccccc12 | inconclusive: 21.3 µM [inhibitor, partial curve, poor fit] |  |
| O=C(COc1ccc(Cl)cc1)Nc1ccc2nc(SCC(=O)N3CCOCC3)sc2c1 | inconclusive: 10.7 µM [inhibitor, partial curve, poor fit] |  |
| Cc1ccc(Nc2nc(CSc3nnc(-c4ccccc4C)n3C)cs2)cc1 | active: 1.9 µM |  |
| CCOC(=O)c1c(NC(=O)CC)sc2c1CCN(Cc1ccccc1)C2 |  | inactive: 5.77% |
| C=CCN1C=CC(=O)CC1 |  | inactive: 0.846% |
| O=C(O)c1cc(S(=O)(=O)Nc2ccc3c(c2)OCCO3)c(Cl)cc1Cl | inconclusive: 37.9 µM [inhibitor, single point] |  |
| CC1=CCC2C(=O)N(CCc3c[nH]c4ccccc34)C(=O)C2C1 (stereo not given) | inconclusive: 16.9 µM [inhibitor, partial curve] |  |
| Cc1ccc(NC(=O)c2ccco2)cc1C | active: 9.53 µM |  |
| O=c1[nH]c(SCc2ccccc2)nc2[nH]ncc12 | inconclusive: 30.1 µM [inhibitor, partial curve, poor fit] |  |
